± gives the standard deviation of the averaged measurements. The list shows a part of the results.
test system: PfAP2-G AP2 domain (GST-tagged); experiment: gcPBM binding intensity (ln(normalized median fluorescence intensity)); higher = stronger DNA binding
Method in brief: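 Binding intensity is defined as the maximum Masliner-normalised natural-log median intensity across replicate spots for either probe orientation. It was measured on an Agilent 4 × 180k array of primer-extended double-stranded 36-bp intergenic genomic probes and negative controls, to which GST-tagged P. falciparum DNA-binding domains made in E. coli were applied for 1 h in 1× PBS with 1% milk, 0.2 mg/ml BSA, 0.5% salmon testes DNA and 0.03% Triton X-100. Detection was by Alexa488 anti-GST antibody and scanning at 488 nm.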

Sequence	gcPBM binding intensity (ln)
ATATAAAAAAATTGCACACATAAATATATACATATA [CACACA_site1218]	10.12 ± 0.064
TATTGTAATATTATATATATCTATTATGTATATAAA [CACACA_negctrl_site454]	9.61 ± 0.13
AATTATATATTAAAAAGTACAAGTTAATATAATATA [XGTACX_site2737]	11.3 ± 0.77
TAATTAAAATTATTTATAAATTAGTATATTTCTATA [CACACA_negctrl_site663]	9.465 ± 0.035
TTATTATTTTATCGTAGTACACCTAAATTATAAAAC [XGTACX_site5251]	11.4 ± 0.97
ATTAATAATCGAAAGGTGCACTTTGATTTGATAACA	10.7 ± 0.8
ATATATTTTTCAAAATGTACAAATAATTAAATACCA [XGTACX_site875]	10.7 ± 0.49
TAATAAATTATTTTTTATTATTTTAATAACACTTCA [CACACA_negctrl_site3]	9.4 ± 0.2
TTACAAAAATTTTGTTCACACATAAAAATATGTTAC [CACACA_site5740]	10.1 ± 0.2
GGCAAATTTATTATACCCACATACATACATACATAC [XGTACX_negctrl_site186]	10.8 ± 0.62
AAAATTAAACAAAGTTGTACAAAATAATAATAAAAG [XGTACX_site7515]	11.2 ± 0.62
AAATTAATAAAAAATGGTACACAAAATGGATGTATA [XGTACX_site1561]	11.3 ± 0.57
TTAACTATGAATACATGTACATGAAAATATTTCAAT [XGTACX_site1069]	11.2 ± 0.68
ACCCTATAGGTAACTACACACCGCATATTGTTTACT [CACACA_site7436]	10.22 ± 0.049
TTTATATTAATTGATGTGCACTGAAATATTTGTCCA [GTGCAC_site9655]	10.2 ± 0.25
AAATGTGATATAAGTACACACACATATGTATATATA [CACACA_site8539]	11.4 ± 0.98
AACGAAATCATCAAGTGTACTAGTTTATTATTAATA [XGTACX_site6161]	11.3 ± 0.98
AAAAAGGATAAACACACACACACACCGATATATATA [CACACA_site8206]	9.97 ± 0.099
TTATTTTTGTGTAAGGTGCTATATATAATGTTTTTA	10 ± 0.17
AATAAATAAATAAATATATATATATATATATATATG [CACACA_negctrl_site899]	9.65 ± 0.19
TTTTGTTGATTTATATCTGTAGGGTTTAATATAACA [XGTACX_negctrl_site174]	9.98 ± 0.25
TATGTATATTATATGACACACATTTATATATATATA [CACACA_site1167]	10.3 ± 0.62

Sequence	gcPBM binding intensity (ln)
TATATATCCATGTGTACACACAAAAAAAAATAAAGT [CACACA_site7107]	11.7 ± 0.93
AAATATGTTTATATATGTACTTATAATTCAAAATAT [XGTACX_site2167]	11.2 ± 0.83
TCTATGCGTTTTAATAGTACATATAAAATTTATACA [XGTACX_site6986]	11 ± 0.69
AAAATAAAATAAAACACAAAAAAATAAAACAAAATA [CACACA_negctrl_site16]	9.795 ± 0.035
CCATGTCACAATTTTTCACACACAAAATTTATATAC [CACACA_site8628]	10.3 ± 0.44
TAATTAACAAACTATAGTACACAAAATACTTCATAT [XGTACX_site6375]	11.2 ± 0.79
ATATACACACATAAGTGTACTTATATTTCATATATA [XGTACX_site8646]	11.6 ± 0.81
TTTAAATGAAAAAAAGGTACACAATATTATTCTTAT [XGTACX_site8612]	11.3 ± 0.77
GGATATAACAAACACACACACACATATATATATATT [CACACA_site4141]	9.95 ± 0.042
AATACATATAATACAACACACAAGTAATATAAACCT [CACACA_site3597]	9.95 ± 0.042
AAAAAAAAAAAACACACACACACACTAGTATATAAA [CACACA_site4783]	10.1 ± 0.19
AAGAAAAAAAAAAATATATATACATATATATATATA [TGCATGCA_negctrl_site485]	9.82 ± 0.57
AATACTTATTATGAAACACACACCAAAACTACATAA [CACACA_site270]	10.3 ± 0.31
ATATATATATATTTATGTACATATATTTTTTTTTTT [XGTACX_site8558]	11.2 ± 0.74
AATGTATATATATATATATATATATATATTTATTTA [CACACA_negctrl_site113]	9.51 ± 0.19
AAGAAAATAGAAAATACACACAGCAAACAGAGGAAT [CACACA_site3785]	10.06 ± 0.071
AAATTTATTATATATACATGCAATCATAAATAATGT [TGCATGCA_site539]	9.795 ± 0.078
AATAAATAAATACATCTCAGTATATAAACAAACAAA [CACACA_negctrl_site1604]	9.9 ± 0.057
AAGCCTTAAAAGGAAAGTACGTATATATATATATAT [XGTACX_site8559]	10.9 ± 0.62
ATATTTAATTAAAAGAGTACTTAAATAAAATAAATG [XGTACX_site2149]	11.2 ± 0.85
ATGAAACATGTATATTGTACTCTGGATCAATTTAAT [XGTACX_site6413]	11.1 ± 0.59
ATAATATATGAAAGTGGTACACAAAGGAAAATAAAA [XGTACX_site333]	11.6 ± 0.97

Sequence	gcPBM binding intensity (ln)
TTATAAATAAAAAATACACACATATATTTATTTATA [CACACA_site6242]	9.77 ± 0.028
TTTTTTTTTTTGTTCACACATATATATATATATATA [CACACA_site5376]	10.1 ± 0.33
AATAATAAATCAAACTGTACATATATTTTCAATCTA [XGTACX_site3344]	11.2 ± 0.85
TGTAGTCTGGAGAAAAGTACACAGTATCCGGTAACT [XGTACX_site4934]	11.6 ± 0.98
TTCTTCTAATCCTTTTATCTCATTAAAAAAATATAA [CACACA_negctrl_site12]	9.96 ± 0.27
TATACATACACATACACACATACACCCATACACATA [CACACA_site1746]	10.3 ± 0.21
TATATATATATATATACACACATATATACATATATA [CACACA_site4043]	9.96 ± 0.43
ATCCTAATATTGAACTGTACCTTATATGTTATTATA [XGTACX_site1014]	11.1 ± 0.67
GGTTATATATTTTTTGCACACCAAAAAAGAGAATAT [CACACA_site2731]	10.3 ± 0.3
ACGTGTATTTATTTAGTGCACTTTATATTTTTTCTT [GTGCAC_site9426]	10.6 ± 0.4
ATATATATATAATCATCACACATGCAGCCCTGATGA [CACACA_site5500]	9.88 ± 0.2
TATATATTACATACATGTACCCAAAAAAAAAAAAAA [XGTACX_site1168]	11.2 ± 1.1
ATAAATACATATGTGTGTACACATTATATATATATA [XGTACX_site1486]	11.6 ± 0.69
GAAAAATTAAAACCTACACACACATTTAAAAAAAAA [CACACA_site9005]	10.05 ± 0.078
TTTTTTATTCATGTAACACACATTTAATTATGAATT [CACACA_site2706]	10 ± 0.17
GAATGAATACGTTTTACACACTTGAATCTAATTTCA [CACACA_site6593]	10.2 ± 0.17
ATTCTACTTTTATTTATTTATTTGTTTATATATATA [XGTACX_negctrl_site609]	10.03 ± 0.057
ATATATATATATATATGTACTTATTTATTTATATTA [XGTACX_site4646]	11.4 ± 0.99
GTGTAGATATTGAAATGTACTCTCCATATAAAATAA [XGTACX_site4713]	11 ± 0.52
AAAGAATTTGCATATACACACAAAAAAATATATACA [CACACA_site386]	10.03 ± 0.035
CTTATAGGTCATTTCCTTGACCCCCTTTGTTGTACT [CACACA_negctrl_site551]	10.8 ± 0.52
ATCAGTCGGCAGGACAGTACACAGTAGCCAGAAAAT [XGTACX_site2550]	11.2 ± 0.67

Sequence	gcPBM binding intensity (ln)
TATAAATATAAATATACACACATATATATATATATA [CACACA_site1678]	9.99 ± 0.36
TTGCATTAATTTATGTGTACATATAAATTTTTATTT [XGTACX_site3060]	11.6 ± 0.88
TTTAACAAGTTAAACACACATACATATATACATATA [CACACA_site2536]	9.76 ± 0.014
TTTTTTTTTTTTTTATGTACACATCTAAAAAAAAGG [XGTACX_site2067]	11.6 ± 1.1
GCCCCCTAAAAAATTACACACGAAAAAAATGAATTT [CACACA_site9128]	11.7 ± 1.2
GGTCTAACAACATGCGCACACACATGAATATTCATA [CACACA_site1539]	10.5 ± 0.36
TAAGTATAAAAAAATAGTACAATTATGAAATATCGT [XGTACX_site2529]	11.2 ± 0.71
TTCTTTTTAATTAATACACACACACCCATATATATA [CACACA_site8719]	10.3 ± 0.25
TATAAAAATATATATATATATATATATATAATATGT [TGCATGCA_negctrl_site85]	10.2 ± 0.42
TTAAAAAAAAAACACACACACATACCCATATATATA [CACACA_site5768]	10 ± 0.28
ATTTGTTCCTTGGGAGTTTACTTTTTTTTAATTTTA [CACACA_negctrl_site638]	10.15 ± 0.042
TTTATTTAAGAAAAATGTACAGGTTCATTTCATAAT [XGTACX_site27]	10.9 ± 0.54
CATATAAATACATGCACACAAAAATATCAATACATT [CACACA_site2392]	10.12 ± 0.014
AACAAAATTGAAGGAACACACATACATATTTATATA [CACACA_site6227]	10
AAAAAATTAGATTATGCACACACACTAATAAATAAT [CACACA_site8604]	10.07 ± 0.064
ATGTGTTAAAAATGCACACAAAAAAATATACATATA [CACACA_site295]	10.175 ± 0.007
ACATGTGAACATTCAATGCACACGATGTAATTATAC [CACACA_site14]	10.19 ± 0.042
TTTTTTAAATATATGGTGCATAGAAAGATATTATAC [GTGCAC_site9984]	10.2 ± 0.26
ATATTATATATATACACACACACATGCATGCACCTA [CACACA_site106]	10.06 ± 0.078
TTTAAAAAAAGCAGTACATGCAAAATAATAACAAGC [TGCATGCA_site392]	11 ± 0.53
CAATTATATAATTGAAGTACTAGGAAAGATATATAT [XGTACX_site5459]	11.2 ± 0.62
TAAAAAAATATTACATGTACATAAAATATATATATA [XGTACX_site4633]	11.4 ± 0.78
